Source: PubChem BioAssay AID720709 (National Center for Advancing Translational Sciences (NCATS), 2013)
In all, about 360,000 compounds went through this assay and about 520 (0.14%) were called active. Inconclusive results, whose numbers are uncertain, are shown with a selection of clear calls. The call rests on the fitted dose curve; in most records, active means well fitted inhibition curve with a large enough effect; inconclusive means small, poorly fitted or top-dose-only effect; inactive means no such curve, though single readings can be large or run the other way. Potencies of inconclusive entries are left out as doubtful fits.

Molecular target: Rap guanine nucleotide exchange factor 3 (Homo sapiens) (UniProt O95398)
Sequence of UniProt O95398 (O95398 whole entry, looked up): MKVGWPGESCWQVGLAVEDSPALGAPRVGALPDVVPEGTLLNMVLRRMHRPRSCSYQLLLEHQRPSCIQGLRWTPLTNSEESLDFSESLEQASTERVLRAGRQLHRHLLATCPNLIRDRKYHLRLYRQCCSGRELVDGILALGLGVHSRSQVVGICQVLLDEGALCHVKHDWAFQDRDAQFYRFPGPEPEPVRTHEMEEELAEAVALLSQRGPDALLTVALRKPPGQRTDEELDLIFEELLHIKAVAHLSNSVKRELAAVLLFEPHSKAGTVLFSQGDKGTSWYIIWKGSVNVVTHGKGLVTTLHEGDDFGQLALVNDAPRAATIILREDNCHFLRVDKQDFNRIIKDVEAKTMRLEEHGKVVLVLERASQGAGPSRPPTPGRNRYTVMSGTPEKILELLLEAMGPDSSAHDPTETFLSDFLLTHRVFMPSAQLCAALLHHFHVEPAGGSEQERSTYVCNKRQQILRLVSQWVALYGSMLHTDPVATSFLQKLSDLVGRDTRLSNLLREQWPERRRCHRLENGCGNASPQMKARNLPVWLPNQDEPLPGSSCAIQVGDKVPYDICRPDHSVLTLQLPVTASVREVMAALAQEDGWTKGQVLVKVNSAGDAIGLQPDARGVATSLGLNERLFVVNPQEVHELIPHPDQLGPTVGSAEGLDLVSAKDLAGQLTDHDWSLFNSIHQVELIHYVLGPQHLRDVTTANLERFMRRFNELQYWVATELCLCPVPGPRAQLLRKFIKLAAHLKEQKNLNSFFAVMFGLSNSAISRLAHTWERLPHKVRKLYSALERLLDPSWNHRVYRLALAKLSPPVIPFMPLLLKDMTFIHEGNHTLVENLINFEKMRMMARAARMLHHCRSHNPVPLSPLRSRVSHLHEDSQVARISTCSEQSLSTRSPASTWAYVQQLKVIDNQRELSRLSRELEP
Assay: qHTS for Antagonist of cAMP-regulated guanine nucleotide exchange factor 3 (EPAC1): primary screen; further: nearly all actives have a fitted effect of over 50% in size;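 on activity change, negative = inhibition: plate controls were vehicle for no effect and positive control for full effect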
Conditions: EPAC1 GEF assay, Rap1b-BODIPY-GDP exchange fluorescence; activity change, negative = inhibition: at 115 µM (top of the series)
Potency means the concentration at half of the fitted maximal effect; tags describe the fitted curve by direction and shape.

| SMILES | activity change, negative = inhibition | Potency |
| --- | --- | --- |
| COc1ccccc1N1CCN(Cc2ccc(O)c3ncccc23)CC1 | inactive: -6.81% | – |
| O=C(O)CN1C(=O)/C(=C\c2cc(Br)ccc2OCc2ccc(F)cc2)SC1=S | – | inconclusive [inhibitor, single point] |
| CC(C)c1nn2c(=O)cc(CSc3ccccc3NC(=O)c3ccccc3F)nc2s1 | – | inconclusive [inhibitor, partial curve] |
| Cn1cnnc1SCC(=O)Nc1sc2c(c1C(N)=O)CCC2 | – | inconclusive [inhibitor, partial curve] |
| Cc1ccc([N+](=O)[O-])cc1NC(=O)Cc1cccs1 | – | inconclusive [inhibitor, single point] |
| CCN(CC)c1nc(-c2ccccn2)nc(-c2ccccc2)c1C#N | inactive: 1.03% | – |
| CC(=O)Nc1ccc(NC(=O)CSc2nnc(C3CC3)n2C)cc1 | inactive: 12.8% | – |
| O=C(Nc1ccc(C(F)(F)F)cc1)C1CCCCN1S(=O)(=O)c1ccccc1 (centres undefined) | – | inconclusive [inhibitor, partial curve] |
| COC(=O)[C@@]1(Cc2ccc(OC)cc2)[C@@H]2C(=CC(=O)[C@H]2CC(=O)C(=O)N2CCCC2)CN1C(=O)c1ccccc1 | inactive: -7.72% | – |
| CC1CC(C)CN(C(=S)SCc2nc(N)nc(Nc3ccccc3)n2)C1 (centres undefined) | – | inconclusive [inhibitor, full curve] |
| C/C(=N\NC(=O)c1ccc2c(c1)OCO2)c1ccc2c(c1)OCO2 | – | inconclusive [inhibitor, partial curve, poor fit] |
| O=C(CN(Cc1ccccc1Cl)C(=O)CNS(=O)(=O)c1ccc(F)cc1)NCC1CCCO1 (centres undefined) | inactive: -18.4% | – |
| CC1=C(C(=O)N(C(C)C)C(C)C)CC(CC(=O)NC2CCCCC2)C(=O)N1Cc1ccc(C(C)(C)C)cc1 (centres undefined) | – | inconclusive [inhibitor, full curve, poor fit] |
| C=CCOc1c(Br)cc(/C=C2/NC(=S)N(C(C)=O)C2=O)cc1OC | – | inconclusive [inhibitor, partial curve] |
| Oc1ccc(Nc2ccc3ccccc3c2)cc1 | inactive: -15% | – |
| CC[n+]1ccccc1/C=C/c1ccc(N(C)C)cc1 | – | inconclusive [inhibitor, partial curve, poor fit] |
| COc1ccc(C2C=C(C)Nc3nc(SC)nn32)cc1 (centres undefined) | inactive: -1.18% | – |
| CCCCCCC(O)(c1ccc(OC)cc1)C(CN1CCOCC1)c1ccccc1 (centres undefined) | – | inconclusive [inhibitor, full curve, poor fit] |
| O=C(COc1ccc(Cl)cc1)Nc1ccc2c(c1)nc1n2CCOC1 | – | inconclusive [inhibitor, full curve, poor fit] |
| CCn1nc(C)cc1-c1nnc(Sc2ncc([N+](=O)[O-])s2)n1C | inactive: 4.77% | – |
| COc1ccc(C2CC(c3cccc(C)c3)n3ncnc3N2)cc1 (centres undefined) | – | inconclusive [inhibitor, single point] |
| CCCc1c(C(=O)OCC)sc(N)c1C#N | inactive: -8.22% | – |

| SMILES | activity change, negative = inhibition | Potency |
| --- | --- | --- |
| Cc1c(CC(=O)N2CCN(C(=O)C3COc4ccccc4O3)CC2)c(=O)oc2c(O)c(O)ccc12 (centres undefined) | – | active: 100 µM |
| O=C1Nc2ccc(Cl)cc2/C1=C/C1CC=CCC1 (centres undefined) | – | inconclusive [inhibitor, partial curve] |
| Cc1nnc(SCc2nnc(-c3ccc(Cl)cc3)o2)n1-c1ccccc1 | – | inconclusive [inhibitor, single point] |
| Cc1occc1C(=O)N/N=C/c1ccc(Br)s1 | inactive: -5.69% | – |
| COc1ccc(C2CC(c3cccs3)=NN2C(=O)CSc2nnc(N)s2)cc1OC (centres undefined) | – | inconclusive [inhibitor, full curve, poor fit] |
| CCOC(=O)CSC1=C(C#N)C(c2ccco2)C(C(=O)OCc2ccccc2)=C(C)N1 (centres undefined) | – | inconclusive [inhibitor, single point] |
| OCC(O)C(O)C(O)C(O)c1nc2ccccc2[nH]1 (centres undefined) | – | inconclusive [inhibitor, single point] |
| CCCCC(=O)N1CCCC(C)C1 (centres undefined) | – | inconclusive [inhibitor, single point] |
| Cc1ccc(Cl)cc1NC(=S)N1CCC(c2ccccc2)C1 (centres undefined) | – | inconclusive [inhibitor, partial curve] |
| COC(=O)c1cc(=O)nc2sc(-c3cccs3)nn12 | inactive: -6.24% | – |
| O=C(Cn1ncc(Cl)c(Cl)c1=O)N1CCN(S(=O)(=O)c2ccc3ccccc3c2)CC1 | inactive: -20.8% | – |
| CCOc1ccccc1NC(=O)C(NCCN(C)C)c1ccccc1 (centres undefined) | inactive: 6.79% | – |
| O=C(Cc1ccc(-n2c(=O)[nH]c3ccsc3c2=O)cc1)N1CCN(c2ccc(Cl)cc2)CC1 | – | inconclusive [inhibitor, partial curve] |
| CC(C)NC(=O)C(C)N1CCN(S(=O)(=O)c2ccc3ccccc3c2)CC1 (centres undefined) | inactive: 17.2% | – |
| O=C(Nc1ccccc1Cl)c1ccc2c(c1)N(Cc1ccc(F)cc1)C(=O)CS2=O (centres undefined) | – | inconclusive [inhibitor, single point] |
| O=C(Nc1ccc(N2CCN(C(=O)c3ccc(Cl)cc3)CC2)cc1)c1ccc2c(c1)OCCO2 | inactive: -3.58% | – |
| CC(C)(C)OC(=O)[C@H]1[C@H](c2ccc([N+](=O)[O-])cc2)C2(C(=O)c3ccccc3C2=O)C2c3ccccc3C=NN21 (some centres undefined) | – | inconclusive [inhibitor, single point] |
| COc1ccccc1NS(=O)(=O)c1cc(NC(=O)c2cccs2)ccc1N1CCOCC1 | – | inconclusive [inhibitor, full curve, poor fit] |
| CCOc1cc(C2C3=C(CC(C)(C)CC3=O)N(CCOC)C3=C2C(=O)CC(C)(C)C3)ccc1O | – | inconclusive [inhibitor, partial curve, poor fit] |
| COc1cc(S(=O)(=O)NCCCN2CCOCC2)ccc1-n1cnnn1 | – | inconclusive [inhibitor, full curve, poor fit] |
| N#Cc1c2n(c3c(=O)n(Cc4ccc(Cl)cc4)cnc13)CCCCC2 | – | inconclusive [inhibitor, partial curve, poor fit] |
| CCCC1C(=O)Nc2ccccc2N1C(=O)c1ccc(C(C)(C)C)cc1 (centres undefined) | – | inconclusive [inhibitor, partial curve] |
